Assay results taken from PMC6919601, “Identification of Plasmodium dipeptidyl aminopeptidase allosteric inhibitors by high throughput screening” (PLoS ONE, 2019).
About 230 (0.21%) of roughly 110,000 compounds showed an effect of 50% or more. This is one part of the list.

Each compound was assayed against DPAP1 (Plasmodium falciparum, UniProt Q8IIJ9) (assay: primary screen, percent inhibition; read by cleavage of a fluorogenic dipeptide substrate; higher = more effect of the substance).
Design: species or system P. falciparum D10 trophozoite lysates; single well
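Further: 30 min substrate incubation versus DMSO and 10 µM JCP410 controls.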

Chain of DPAP1 (Q8IIJ9 whole entry, looked up): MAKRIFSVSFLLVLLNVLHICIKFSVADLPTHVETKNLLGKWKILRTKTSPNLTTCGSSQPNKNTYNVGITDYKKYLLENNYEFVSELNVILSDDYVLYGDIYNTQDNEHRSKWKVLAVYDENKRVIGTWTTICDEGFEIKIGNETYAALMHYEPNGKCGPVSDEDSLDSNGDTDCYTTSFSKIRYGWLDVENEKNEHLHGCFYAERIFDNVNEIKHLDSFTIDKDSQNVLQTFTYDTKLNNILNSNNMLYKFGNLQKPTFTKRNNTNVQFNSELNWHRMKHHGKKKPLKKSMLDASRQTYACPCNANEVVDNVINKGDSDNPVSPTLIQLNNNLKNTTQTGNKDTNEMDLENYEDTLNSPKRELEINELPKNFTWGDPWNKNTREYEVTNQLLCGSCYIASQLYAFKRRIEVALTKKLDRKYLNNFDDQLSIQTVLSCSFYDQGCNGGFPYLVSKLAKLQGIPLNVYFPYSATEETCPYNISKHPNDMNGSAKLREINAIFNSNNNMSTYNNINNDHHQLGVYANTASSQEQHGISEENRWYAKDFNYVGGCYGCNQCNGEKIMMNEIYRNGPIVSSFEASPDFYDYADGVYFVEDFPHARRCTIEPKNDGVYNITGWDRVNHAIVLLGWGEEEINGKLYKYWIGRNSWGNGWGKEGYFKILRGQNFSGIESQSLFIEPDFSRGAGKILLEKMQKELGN

| Compound | % Inhibition @ 10 uM |
| --- | --- |
| CCOC(=O)c1c(C)oc2nc(C)nc(N(C)Cc3ccco3)c12 | 4.44% |
| O=C(O)c1c2c(nc3ccccc13)CCC2 | -1.8% |
| C#CC(C)(C)NCCC(=O)/C(C)=C/C | -7.52% |
| COc1cc(C2C(C#N)=C(N)Oc3[nH]nc(C(C)(C)C)c32)cc(OC)c1OC (stereo not drawn) | 2.92% |
| COc1ccccc1C(=O)NCc1nnc(SCC(=O)Nc2nccs2)n1-c1cccc(C)c1 | -4.97% |
| O=C(CCCc1c[nH]c2ccccc12)NCCN1CCOCC1 | 3.47% |
| Cc1cccnc1NC(=O)Nc1cn(CC(C)C)c(=O)c2ccccc12 | -0.171% |
| O=C(NCCc1ccccc1)c1cc(C2CC2)on1 | 3.55% |
| O=c1[nH]c(=S)ccn1-c1nc(-c2ccccc2)sc1-c1ccccc1 | 1.33% |
| CN1c2ccccc2N(C)C1c1c(O)ccc2ccccc12 | 5.63% |
| CN1CCC(N(C)Cc2ccccc2[N+](=O)[O-])CC1 | 1.55% |
| CN1CCN(CCCn2nnc3c(=O)oc4ccccc4c32)CC1 | -6.06% |
| COc1cccc(NC(=O)[C@@H]2C3C=CC(C3)[C@@H]2C(=O)O)c1 (stereo partly drawn) | -2.63% |
| Cc1ccc2c(c1)-c1c(cnn1CC(=O)N1CCN(c3ncccn3)CC1)CO2 | -6.07% |
| O=C1CC(c2ccc(Cl)cc2)NC(NC(=O)c2cccnc2)=N1 (stereo not drawn) | -10.3% |
| O=C1NC(=O)C(=CNc2ccccc2Oc2ccccc2)C(=O)N1 | -4.91% |
| O=C(O)c1cc(Cl)c(Cl)cc1C(=O)Nc1ccccc1O | -3.78% |
| Cc1ccc(NC(=O)CN2C(=O)S/C(=C\c3ccccn3)C2=O)cc1C | -9.93% |
| COc1ccc(NC(=O)/C=C/c2ccco2)cn1 | -1.46% |
| O=C(Nc1ccc(Oc2ccccc2)cc1)c1ccncc1 | -11.7% |
| COc1cccc(CNCc2cc(F)ccc2F)c1OC | -2.73% |
| CN1CCN(C(=O)c2nn(C)c3c2CS(=O)(=O)c2ccccc2-3)CC1 | -2.58% |
| Nn1cnnc1SCc1ccc(F)cc1 | -6.6% |
| O=C(N/C(=C\c1ccco1)C(=O)N1CCCC(CO)C1)c1ccccc1 (stereo not drawn) | -0.996% |
| COc1cccc(-c2cn3c(n2)sc2cc(C(=O)NCc4cccc(OC)c4OC)ccc23)c1 | 4.59% |
| COCc1cc(C)nc(SCC(=O)O)c1C#N | -0.999% |
| CCCCOC(=O)Nc1nc2ccccc2s1 | 4.01% |

| Compound | % Inhibition @ 10 uM |
| --- | --- |
| Clc1ccc(C2CC(c3ccco3)n3ncnc3N2)c(Cl)c1 (stereo not drawn) | 0.189% |
| CCC1(C)COC2(OC1)C(=O)Nc1ccccc12 (stereo not drawn) | -2.88% |
| CNC(=O)C1CC(=O)N(C2CCCCCC2)C1 (stereo not drawn) | -1.79% |
| O=S(=O)(c1ccc(Cl)c(Cl)c1)N1CCn2c(nc3ccccc32)C1 | 3.53% |
| O=C(NCCCc1ccccc1)Nc1cccc(Cl)c1 | -5.34% |
| CC1CCCCC1NC(=O)C1CCN(S(=O)(=O)N2CCOCC2)CC1 (stereo not drawn) | 6.74% |
| Cc1nc2nc(-c3ccc(Cl)cc3Cl)nn2c(C)c1CCC(=O)NCc1ccc2c(c1)OCO2 | -0.465% |
| Cc1cccc(OCCCCCn2ccnc2)c1 | 2.76% |
| COc1cccc(CN(C(=O)COc2ccc(Cl)cc2Cl)C2CCS(=O)(=O)C2)c1 (stereo not drawn) | -4.95% |
| Cc1cn(CC(=O)c2ccccc2)c2ccccc12 | 0.255% |
| Cc1cccc2c1Sc1ccccc1CC2N1CCNCC1 (stereo not drawn) | -2.18% |
| CC(C)(CNC(=O)c1ccccc1Cl)CNC(=O)c1ccccc1Cl | -1.61% |
| COC(=O)c1ccc(/C=c2\sc3nc(-c4cccs4)nn3c2=O)cc1 | 3.54% |
| CCn1c2ccccc2c2cc(CNCCNC(=O)c3nonc3N)ccc21 | -5.33% |
| COc1ccc(CC(=O)Nc2cc(Cl)ccc2Cl)cc1OC | 0.583% |
| Cc1cc(CN2CCN(Cc3ccccc3)CC2)cs1 | 3.36% |
| N#C/C(=C\c1ccc(-c2ccc(Cl)cc2Cl)o1)c1nc2ccccc2[nH]1 | 6.08% |
| CCc1ncc(C(O)(c2ccccc2)c2ccccc2)n1C | -3.32% |
| Cc1ccc(-c2c(O)c(=O)/c2=N\C(C)c2ccccc2)cc1 (stereo not drawn) | -2.28% |
| COc1ccc(C(=O)OC(C)CN(C)C)cc1 (stereo not drawn) | 2.32% |
| COC(=O)c1c(NC(=O)CSc2ncnc3sc4c(c23)CCCC4)sc2c1CCC2 | 1.63% |
| CCC(C)NC(=O)COCc1cc(-c2ccc(F)cc2)on1 (stereo not drawn) | 3.12% |
| C=CCSc1nc(O)c2cnn(-c3ccc(Cl)cc3)c2n1 | -1.54% |
| O=C(CCCC(=O)Nc1cccc(C(F)(F)F)c1)Nc1cccc(C(F)(F)F)c1 | -4.96% |
| O=C(Nc1cnn(Cc2ccc(F)cc2)c1)c1cnccn1 | 3.94% |
| COc1ccc(CCCC(=O)NCCc2ccccc2)c(C)c1 | -7.69% |
| COc1ccc(-c2c(C#N)c(N)nc(OC)c2C#N)c(OC)c1 | -1.86% |

| Compound | % Inhibition @ 10 uM |
| --- | --- |
| CC(C)CC(C(=O)NCC#N)c1nc(-c2cccc([N+](=O)[O-])c2)cs1 (stereo not drawn) | -4.72% |
| C=CCSc1nc(C2CC2)cc(-c2ccccc2)c1C#N | 4.67% |
| CC12CN3CC(C)(CN(C1)C3C(O)C(O)C(O)CO)C2 (stereo not drawn) | -3.64% |
| Cc1ccc(C(=O)Nc2ccccn2)cc1 | -1.56% |
| COc1ccc(Nc2oc(COc3ccc(C)cc3)nc2C#N)cc1 | -5.01% |
| Cc1ccccc1Oc1ccc(S(=O)(=O)N2CCN(Cc3ccc4c(c3)OCO4)CC2)cc1 | -6.65% |
| CCCCN1C(=O)C(F)(c2ccccc2)C(=O)c2ccccc21 (stereo not drawn) | -9.55% |
| CCN(CC)S(=O)(=O)c1ccc(-c2csc(N3N=C(c4ccccc4)CC3c3ccccc3)n2)cc1 (stereo not drawn) | -0.771% |
| C=CCN(C(=O)c1ccc(Cl)cc1Cl)c1nnc(-c2ccncc2)s1 | -4.35% |
| CC(CCc1ccc(O)cc1)NC1C2CC3CC(C2)CC1C3 (stereo not drawn) | -0.0494% |
| Clc1cccc(-c2nnc3sc(-c4cnccn4)nn23)c1 | 7.5% |
| CCCCSc1nc(C)c(C(C)=O)cc1C#N | 3.65% |
| COc1cccc(C2NC(C(=O)O)Cc3c2[nH]c2ccccc32)c1 (stereo not drawn) | -3.62% |
| CCOc1ccccc1NC(=O)C1=C(C)NC(=O)NC1c1c(OC)ccc2ccccc12 (stereo not drawn) | 1.4% |
| CC(C)CC(NC(=O)/C(=C\c1ccc(F)cc1)NC(=O)c1ccco1)C(=O)O (stereo not drawn) | 16.7% |
| CCN1CCCC1CNC(=O)C1=CCN(S(=O)(=O)c2ccccc2)CC1 (stereo not drawn) | 0.137% |
| Cn1c(/C(=C/c2ccc(Cl)cc2Cl)C2=NC(=O)CS2)nc2cccnc21 | -10.7% |
| COc1ccc(-c2noc(-c3ccccn3)n2)cc1OC | -7.17% |
| O=C(O)c1cnc2c(Cl)cccc2c1O | -6.22% |
| CC(NC(=O)c1cccc([N+](=O)[O-])c1)c1ccccc1 (stereo not drawn) | 3.42% |
| CCOc1ccc(NC(=O)COc2ccc(CC)cc2Br)cc1 | -1.11% |
| CC1C(=O)C(C)C(c2ccc(N(C)C)cc2)NC1c1ccc(N(C)C)cc1 (stereo not drawn) | 2.45% |
| COc1cccc(CN2CCC(O)CC2)c1 | -3.56% |
| CCC(C(=O)NC(C)CCc1ccccc1)n1nc(C)n2c(cc3sccc32)c1=O (stereo not drawn) | 0.137% |
| COc1c(Cl)cc(-c2noc(C)c2C(=O)NCc2ccc3c(c2)OCO3)cc1Cl | 2.9% |
| O=C(c1cc(S(=O)(=O)N2CCCCC2)c[nH]1)N1CCN(C(c2ccccc2)c2ccccc2)CC1 | 3.46% |
| Cc1noc(C)c1S(=O)(=O)N1CCCC(C(=O)NCc2ccccc2Cl)C1 (stereo not drawn) | -1.03% |

| Compound | % Inhibition @ 10 uM |
| --- | --- |
| Cc1cc(O)c2c(C)c(CC(=O)N3CCCC3)c(=O)oc2c1 | 2.54% |
| CC1=C(c2ccc(C(C)C)cc2)S(=O)(=O)N=C1NCc1ccc(C)cc1 | 2.27% |
| CC(C)N(CCC#N)S(=O)(=O)c1ccc([N+](=O)[O-])cc1 | -4.06% |
| CCOc1cc(/C=C2/SC(=O)N(CC)C2=O)c(Br)cc1O | -5.54% |
| CCN(CC)S(=O)(=O)c1ccc(S(=O)(=O)N(Cc2ccc(F)cc2)Cc2ccco2)cc1 | 3.66% |
| CCCCCCS(=O)(=O)Nc1ccc([N+](=O)[O-])cc1O | -0.294% |
| CCCCNc1ncnc2c1cnn2-c1ccc(Cl)cc1 | 5.38% |
| CCCOc1ccc(CC(=N)N)cc1 | 2.46% |
| COC(=O)c1sccc1S(=O)(=O)N1CCC(C)CC1 | -2.66% |
| CCN(CC)CCC#CC(OC)(c1ccccc1)c1ccccc1 | -1.77% |
| CCSc1nnc(NC(=O)c2cc(-c3cccs3)nc3ccccc23)s1 | -1.1% |
| CCc1nnc2c3c4c(sc3ncn12)CCC4 | -4.35% |
| CSc1nn(C)c2nc3sc4c(c3c(=O)n12)CC(C)(C)OC4 | -1.2% |
| COc1ccccc1CCNC1CCN(C(C)=O)CC1 | 1.38% |
| COC(=O)c1c(C)oc2ccc(OCc3c(F)c(F)c(F)c(F)c3F)cc12 | -4.24% |
| Cc1cc(C)c(S(=O)(=O)NC(=O)C23CC4CC(CC(C4)C2)C3)c(C)c1 | 5.04% |
| O=C1C2CC=CCC2C(=O)N1c1ccccc1O (stereo not drawn) | -2.8% |
| COc1ccc(CCNC(=O)Cn2cc(S(=O)(=O)Cc3ccccc3)c3ccccc32)cc1OC | -1.6% |
| Cc1cccc(-n2ncc3c2ncn2c(COc4ccccc4C)nnc32)c1 | -5.85% |
| Cc1cc(O)nc(SCC(=O)Nc2cccc(C)c2C)n1 | 5.15% |
| CC(C(=O)N1CCN(c2ccccn2)CC1)n1sc2ccccc2c1=O (stereo not drawn) | -6.64% |
| CCCC12CCC(C(=O)O)(CC1)CC2 | 4.16% |
| CC(C)CCNC(=O)Cn1ncc2c3ccccc3nc-2c1O | -5.3% |
| COc1ccc(/C(O)=C/C=N/c2ccccc2F)cc1OC | -4.71% |
